# Measured values reported in the supplement of paper PMC10600219.
# Counter-ions that a name gives are not always drawn. Whole data set: some 2,800 compounds, median “cell viability relative to vehicle” near 1.1, cut for the lowest 2% near 0.19. This is one part of the list.
# System: NCI-H2228 parental
# Assay: cell viability relative to vehicle (fraction of vehicle); NCI-H2228 is an ALK-positive lung cancer line and DTP means drug-tolerant persister; higher = less growth inhibition
# Details: 100 nM; treatment time 6 days
# How it was run: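 Values give cell viability as a fraction of vehicle-treated cells. Parental and drug-tolerant persister NCI-H2228 cells (persisters made with 1000 nM of a targeted drug for 13 days) were exposed in 384-well plates to the 3114-agent TargetMol anti-cancer compound library at 100 nM, with DMSO as vehicle. ATP was then read after 6 days by the CellTiter-Glo 3D Cell Viability Assay.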
row,Structure (SMILES),cell viability
1,O=C1C[C@@H](c2ccc(O)cc2)Oc2cc(O)ccc21 [Liquiritigenin],1.1
2,CC(C)=CCC[C@](C)(O[C@@H]1O[C@H](CO)[C@@H](O)[C@H](O)[C@H]1O)[C@H]1CC[C@]2(C)[C@@H]1[C@H](O)C[C@@H]1[C@@]3(C)CC[C@H](O)C(C)(C)[C@@H]3[C@@H](O)C[C@]12C [Ginsenoside F1],1.1
3,Nc1ncnc2c1ncn2[C@@H]1O[C@H](CO)[C@@H](O)[C@H]1O [Adenosine],1.14
4,C=CC(=O)N1CC[C@H](n2nc(C#Cc3cc(OC)cc(OC)c3)c3c(N)ncnc32)C1,0.875
5,C[C@@H](NC(=O)c1ncnc(N)c1Cl)c1ncc(C(=O)Nc2cc(C(F)(F)F)c(Cl)cn2)s1,1.19
6,C[n+]1cc2c3c(ccc2c2ccc4cc5c(cc4c21)OCO5)OCO3 [Sanguinarine chloride],1.07
7,Cc1cc(/C=C2/SC(=S)NC2=O)c(C)n1-c1cccnc1 [Optovin],0.95
8,Nc1ccn([C@@H]2O[C@H](CO)[C@@H](O)C2(F)F)c(=O)n1 [Gemcitabine],0.0956
9,Nc1ccn([C@@H]2O[C@H](CO)[C@@H](O)C2(F)F)c(=O)n1 [Gemcitabine HCl],0.121
10,COc1ccccc1N1CCN(CCN(C(=O)C2CCCCC2)c2ccccn2)CC1,1.09
11,CN(C)CCN(Cc1ccccc1)c1ccccn1 [Tripelennamine hydrochloride],1.03
12,CC1CNc2c(cccc2S(=O)(=O)N[C@@H](CCCNC(=N)N)C(=O)N2CC[C@@H](C)C[C@@H]2C(=O)O)C1 (some centres not stated) [Argatroban],1.18
13,C=CC1=C(C)c2cc3[nH]c(cc4nc(cc5[nH]c(cc1n2)c(C)c5CCC(=O)O)C(CCC(=O)O)=C4C)c(C)c3C=C [Protoporphyrin IX],1.14
14,CO[C@H]1C[C@@H]2CC[C@@H](C)[C@@](O)(O2)C(=O)C(=O)N2CCCC[C@H]2C(=O)O[C@H]([C@H](C)C[C@@H]2CC[C@@H](OCCO)[C@H](OC)C2)CC(=O)[C@H](C)/C=C(\C)[C@@H](O)[C@@H](OC)C(=O)[C@H](C)C[C@H](C)/C=C/C=C/C=C/1C [Everolimus],0.704
15,Fc1ccc(Cl)cc1-c1nc(Nc2ccncc2)c2nccnc2n1,1.11
16,C=C(C)[C@@H]1CC[C@]2(C(=O)O)CC[C@]3(C)[C@H](CC[C@@H]4[C@@]5(C)CCC(=O)C(C)(C)[C@@H]5CC[C@]43C)[C@@H]12 [Betulonic acid],0.94
17,O=C(/C=C/c1ccccc1)NC(NC(=S)Nc1cccc2cccnc12)C(Cl)(Cl)Cl (configuration not stated) [Salubrinal],1.2
18,CC(=O)OC(CC(C)C1=C2C[C@H](O)C3[C@@]4(C)CCC(=O)C(C)(C)C4CC[C@]3(C)[C@@]2(C)CC1)C1OC1(C)C (some centres not stated) [Alisol B 23-acetate],0.99
19,CC(=O)O[C@@]12CO[C@@H]1C[C@H](O)[C@@]1(C)C(=O)[C@H](O)C3=C(C)[C@@H](OC(=O)[C@H](O)[C@@H](NC(=O)OC(C)(C)C)c4ccccc4)C[C@@](O)([C@@H](OC(=O)c4ccccc4)[C@H]21)C3(C)C [Docetaxel],0.118
20,CC(=O)O[C@@]12CO[C@@H]1C[C@H](O)[C@@]1(C)C(=O)[C@H](O)C3=C(C)[C@@H](OC(=O)[C@H](O)[C@@H](NC(=O)OC(C)(C)C)c4ccccc4)C[C@@](O)([C@@H](OC(=O)c4ccccc4)[C@H]21)C3(C)C [Docetaxel trihydrate],0.154
21,C[C@H](NC(=O)/C(C#N)=C/c1cccc(Br)n1)c1ccccc1,1.05
22,CNC(=O)CNc1cnc2ccc(-c3ccc(OC)c(OC)c3)cc2n1,1.12
23,CCNC(=O)c1[nH]nc(-c2cc(Cl)c(O)cc2O)c1-c1ccc(OC)cc1,1.15
24,C[C@]12CC[C@@H]3c4ccc(O)cc4CC[C@H]3[C@@H]1CC[C@@H]2O [Estradiol],1.09

row,Structure (SMILES),cell viability
1,CCCN(CCC)S(=O)(=O)c1ccc(C(=O)O)cc1 [Probenecid],1.15
2,COc1ccc(C(=C2C(=O)Nc3ccccc32)c2ccc(OC)cc2)cc1,1.05
3,CC(C)(C)n1nc(Cc2cccc3ccccc23)c2c(N)ncnc21,0.946
4,CCN(CC)C(=O)c1cccnc1 [Nikethamide],1.1
5,O=c1[nH]c(=S)[nH]c(-c2ccccc2)c1Cc1c(O)ccc2ccccc12 [Cambinol],0.896
6,"CCN(CC)C(=O)c1cccc(C)c1 [N,N-Diethyl-m-toluamide]",1.05
7,O=C(NO)c1cnc(NC2(c3ccccc3)CC2)nc1,1.12
8,CC(=O)[C@H]1CC[C@H]2[C@@H]3CCC4=CC(=O)CC[C@]4(C)[C@H]3CC[C@]12C [Progesterone],1.16
9,Cn1cc(CNCC2CCN(c3ncc(C(=O)NO)cn3)CC2)c2ccccc21 [Quisinostat],0.159
10,CN(C)CC/C=C1/c2ccccc2Sc2ccc(Cl)cc21 [Chlorprothixene],0.997
11,CN1CCN(C(=O)C2C(C(=O)O)[C@H]3CC[C@@H]2O3)CC1 (some centres not stated),0.955
12,CN(C)CCOC(c1ccccc1)c1ccccc1 [Diphenhydramine hydrochloride],0.995
13,COc1ccc2c(c1)c(CC(=O)N1CCOCC1)c(C)n2C(=O)c1ccc(Cl)cc1,0.885
14,COc1cccc(C(=O)COc2ccc(CC3SC(=O)NC3=O)cc2)c1 (configuration not stated),0.994
15,O=C1Cc2c([nH]c3ccc(Br)cc23)-c2ccccc2N1 [KenPaullone],1.12
16,CNCCCC12CCC(c3ccccc31)c1ccccc12 [Maprotiline hydrochloride],1.03
17,NCC1CCN(c2nccc(-c3ccc4ccccc4c3)n2)CC1,1
18,CO/N=C(\C(=O)N[C@@H]1C(=O)N2C(C(=O)[O-])=C(C[N+]3(C)CCCC3)CS[C@H]12)c1csc(N)n1 [Cefepime Dihydrochloride Monohydrate],1.19
19,Cc1cc2c(C(N)=O)cccc2n1-c1nc2c(c(NCc3ccccc3)n1)COCC2,1.08
20,Cc1coc2c1C(=O)C(=O)c1c-2ccc2c1CCCC2(C)C [Tanshinone IIA],0.922
21,O=C(NCc1cccc(O)c1)c1cc2cc(F)ccc2[nH]1,1.01
22,O=C(O[C@@H]1Cc2c(O)cc(O)cc2O[C@@H]1c1ccc(O)c(O)c1)c1cc(O)c(O)c(O)c1 [(-)-Epicatechin gallate],1.09
23,CC(=O)O[C@H]1C[C@@H]2CC[C@@H]3[C@H](CC[C@@]4(C)[C@H]3C[C@H]([N+]3(C)CCCCC3)[C@@H]4OC(C)=O)[C@@]2(C)C[C@@H]1N1CCCCC1 [Vecuronium bromide],0.99
24,C[C@]12C=CC(=O)C=C1CC[C@H]1[C@@H]3C[C@@H](O)[C@](O)(C(=O)CO)[C@@]3(C)C[C@H](O)[C@@]12F [Triamcinolone],1.12

row,Structure (SMILES),cell viability
1,N#Cc1ccc(COC[C@H]2O[C@@H](n3c(NCc4ccc(Cl)c(Cl)c4)nc4c(N)ncnc43)[C@H](O)[C@@H]2O)cc1,1.03
2,CC[C@@H](C)c1ccc(NC(=O)Cn2cnc3c2c(=O)n(C)c(=O)n3C)cc1 (racemic),0.944
3,C[C@@H]1O[C@@H](OC[C@H]2O[C@@H](Oc3c(-c4ccc(OCCO)c(OCCO)c4)oc4cc(OCCO)cc(O)c4c3=O)[C@H](O)[C@@H](O)[C@@H]2O)[C@H](O)[C@H](O)[C@H]1O [Troxerutin],1.11
4,CC(=O)CCCCn1c(=O)c2c(ncn2C)n(C)c1=O [Pentoxifylline],1.11
5,Cn1nccc1Nc1nccc(-c2cc3c(s2)C(C)(C)N(CCN2CCOCC2)C3=O)n1,1.08
6,CC(C)CN(CC(=O)N1CCN(CC(OCc2ccc3ccccc3c2)c2ccc(Cl)cc2Cl)CC1)CC(C)C (configuration not stated),1.12
7,CN(C/C=C/c1ccccc1)Cc1cccc2ccccc12 [Naftifine hydrochloride],1.29
8,COc1cc2c(cc1OCCCN1CCCC1)N=C(N)C21CCC1,1.12
9,Nc1c(CC(=O)O)cccc1C(=O)c1ccc(Br)cc1 [Bromfenac sodium],1.12
10,C[C@H]1O[C@@H](n2cc(F)c(=O)[nH]c2=O)[C@H](O)[C@@H]1O [Doxifluridine],0.98
11,CC(C)(C)c1nc(-c2cccc(NS(=O)(=O)c3c(F)cccc3F)c2F)c(-c2ccnc(N)n2)s1 [Dabrafenib],0.894
12,Cc1cc(Nc2cc(N)ncn2)c(=O)n2c1C(=O)NC21CCCCC1,0.932
13,O=c1c(-c2ccc(O)cc2)coc2cc(O)ccc12 [Daidzein],1.01
14,CC1(C)CC[C@]2(C(=O)O)CC[C@]3(C)C(=CC[C@@H]4[C@@]5(C)CC[C@H](O)C(C)(C)[C@@H]5CC[C@]43C)[C@@H]2C1 [Oleanolic Acid],1.23
15,O=C(O)CCCCC(CCSCc1ccccc1)SCc1ccccc1 (configuration not stated),1.16
16,CN1c2ccccc2C(=O)Nc2cnc(Nc3ccc(N4CCC(O)CC4)cc3)nc21,0.984
17,CC(C)(O)c1ccc2c(c1)ncn2-c1cccc(-c2ccccc2C#N)c1,0.988
18,O=C(Oc1ccccc1C(=O)O)c1ccccc1O [Sasapyrine],1.15
19,COc1c(C)c2c(c(O)c1C/C=C(\C)CCC(=O)O)C(=O)OC2 [Mycophenolic acid],1.16
20,CS(=O)(=O)c1ccc(-c2cnc(N)c(C(=O)Nc3ccccc3)n2)cc1,1.01
21,NS(=O)(=O)c1cc(Cl)c(Cl)c(S(N)(=O)=O)c1 [Dichlorphenamide],1.21
22,CCCCCNC(=N)N/N=C/c1c[nH]c2ccc(OC)cc12 [Tegaserod maleate],1.27
23,O=C(O)C1=CO[C@@H](O[C@@H]2O[C@H](CO)[C@@H](O)[C@H](O)[C@H]2O)[C@@H]2C(CO)=CC[C@H]12 [Geniposidic Acid],1.15
24,CN(C)CCOc1ccc(-c2nc(-c3ccncc3)c(-c3ccc4c(c3)CC/C4=N\O)[nH]2)cc1,1.06
